Here are results for 26 compounds from the antibiotic and cytotoxicity screens of Wong et al. (2023).

For one assay, the system named is HSkMC. Put plainly: cytotoxicity call (relative viability < 0.9). Particulars: 10 µM.
In the next assay the test system is HepG2. As to the kind of experiment: cytotoxicity call (relative viability < 0.9). Particulars: 10 µM.
In the next assay the test system is S. aureus RN4220. Put plainly: growth inhibition call (relative growth <= 0.2). The settings on record: 50 µM.

The list shows a part of the results.

Take `C[C@@H]1CN([C@@H](C)CO)S(=O)(=O)c2ccc(-c3ccc(C(=O)N(C)C)cc3)cc2O[C@@H]1CN(C)C(=O)C1CCC1`: the cytotoxicity call in the assay with HSkMC and in the assay with HepG2 was “inactive” each time. The growth inhibition call in the assay with S. aureus RN4220 was “inactive”.

As for `COc1ccc2c3c([nH]c2c1)[C@H](CO)N(C[C@]13CCN(CC1)CC1CCOCC1)S(=O)(=O)c1cn(cn1)C`, the cytotoxicity call with HSkMC and in the assay with HepG2 was “inactive” in each case. For the same compound, in the assay with S. aureus RN4220, the growth inhibition call was “inactive”.

Consider `C[C@@H]1CN([C@H](C)CO)C(=O)c2cccc(NS(=O)(=O)c3ccc(Cl)cc3)c2O[C@H]1CN(C)C(=O)Nc1cccc2ccccc12`, for which the cytotoxicity call in the assay with HSkMC and in the assay on HepG2 was “inactive” throughout. Also, the growth inhibition call in the assay with S. aureus RN4220 is “inactive”.

In the case of `C[C@@H]1CN([C@H](C)CO)C(=O)Cc2cc(NC(=O)Cn3cnnn3)ccc2O[C@@H]1CN(C)C(=O)Nc1cccc2ccccc12`, the cytotoxicity call in the assay on HSkMC and in the assay on HepG2 was “inactive” each time. In addition, in the assay on S. aureus RN4220, the growth inhibition call is “inactive”.

On to `COCC#Cc1cnc2c(c1)C(=O)N([C@@H](C)CO)C[C@H](C)[C@H](CN(C)C(=O)c1cnccn1)O2`, for which the cytotoxicity call in the assay with HSkMC and in the assay with HepG2 was “inactive” each time. For the same compound, the growth inhibition call in the assay on S. aureus RN4220 was “inactive”.

Consider `CN(C)CCCC[C@@H]1NC(=O)[C@@H]2C[C@H](C(=O)NCCCCCNC(=O)CS)[C@H](c3ccc(O)cc3)N2C1=O`, for which the cytotoxicity call in the assay with HSkMC and in the assay with HepG2 was “inactive” in each case. Moreover, the growth inhibition call in the assay with S. aureus RN4220 is “inactive”.

Consider `C[C@H](CO)N1C[C@H](C)[C@@H](CN(C)Cc2ccc(-c3ccccc3)cc2)Oc2ncc(-c3cccnc3)cc2C1=O`, for which the cytotoxicity call with HSkMC and with HepG2 was “inactive” throughout. Moreover, in the assay with S. aureus RN4220, the growth inhibition call is “inactive”.

Consider `Cc1noc(C)c1S(=O)(=O)Nc1ccc2c(c1)CC(=O)N([C@@H](C)CO)C[C@H](C)[C@H](CN(C)C(=O)Nc1ccccc1)O2`, for which the cytotoxicity call in the assay with HSkMC and in the assay on HepG2 was “inactive” throughout. For the same compound, in the assay on S. aureus RN4220, the growth inhibition call is “inactive”.

`CCC(=O)NO`: the cytotoxicity call with HSkMC and in the assay on HepG2 was “inactive” in each case. Also, in the assay on S. aureus RN4220, the growth inhibition call is “inactive”.

`COc1ccc(NC(=O)N(C)C[C@@H]2OCCCC[C@@H](C)Oc3ccc(NC(=O)Nc4ccccc4)cc3C(=O)N([C@@H](C)CO)C[C@H]2C)cc1`: the cytotoxicity call in the assay on HSkMC and with HepG2 was “inactive” each time. For the same compound, the growth inhibition call with S. aureus RN4220 is “inactive”.

For the compound `COc1ccc(CN(C)C[C@@H]2OCCCC[C@H](C)Oc3ccc(NC(=O)NC(C)C)cc3C(=O)N([C@@H](C)CO)C[C@@H]2C)cc1`, the cytotoxicity call with HSkMC and with HepG2 was “inactive” throughout. For the same compound, in the assay with S. aureus RN4220, the growth inhibition call is “inactive”.

Regarding `C[C@@H]1COC(=O)[C@@H](Cc2ccc(F)cc2)CC=CC[C@@H](CC(=O)N[C@@H](CO)Cc2ccccc2)C(=O)N1`, the cytotoxicity call in the assay on HSkMC and in the assay on HepG2 was “inactive” throughout. Besides, the growth inhibition call in the assay on S. aureus RN4220 was “inactive”.

In the case of `CC(C)(C)OC(=O)CC[C@@]12N=C(c3ccc(OCCCO)cc3)O[C@@H]1c1ccccc1CN(C(=O)c1ccccc1)C2=O`, the cytotoxicity call in the assay with HSkMC was “inactive”. Besides, in the assay with HepG2, the cytotoxicity call is “active”. The growth inhibition call with S. aureus RN4220 is “inactive”.

As to `C[C@H]1CN([C@@H](C)CO)C(=O)c2cccc(NC(=O)Nc3ccc(C(F)(F)F)cc3)c2O[C@H]1CN(C)C(=O)Nc1ccc2c(c1)OCO2`, the cytotoxicity call with HSkMC and in the assay on HepG2 was “inactive” each time. In addition, the growth inhibition call with S. aureus RN4220 is “active”.

Regarding `COc1cc(Cc2cc3c(c(CCc4ccccc4)n2)[Si](C(C)C)(C(C)C)OC3)cc(OC)c1OC`, the cytotoxicity call with HSkMC and with HepG2 was “inactive” in each case. In addition, in the assay with S. aureus RN4220, the growth inhibition call is “inactive”.

For the compound `O=C(C[C@H]1C[C@@H]2c3cc(NC(=O)Nc4ccc(C(F)(F)F)cc4)ccc3O[C@@H]2[C@H](CO)O1)NCCc1ccccc1`, the cytotoxicity call with HSkMC and with HepG2 was “inactive” each time. The growth inhibition call with S. aureus RN4220 was “inactive”.

Consider `Cc1ccc(S(=O)(=O)Nc2ccc3c(c2)C(=O)N([C@@H](C)CO)C[C@@H](C)[C@@H](CN(C)S(=O)(=O)c2ccc(C)cc2)OCCCC[C@H](C)O3)cc1`, for which the cytotoxicity call with HSkMC and in the assay on HepG2 was “inactive” throughout. Besides, the growth inhibition call with S. aureus RN4220 was “inactive”.

Regarding `Cc1noc(C)c1NC(=O)Nc1cccc2c1O[C@@H](CN(C)C(=O)Nc1ccc(C(F)(F)F)cc1)[C@H](C)CN([C@H](C)CO)C2=O`, the cytotoxicity call with HSkMC and in the assay on HepG2 was “inactive” each time. Moreover, the growth inhibition call with S. aureus RN4220 is “inactive”.

With `C[C@H](CO)N1C[C@H](C)[C@H](CN(C)Cc2ccc3c(c2)OCO3)Oc2ccc(NC(=O)c3ccncc3)cc2C1=O`, the cytotoxicity call with HSkMC and in the assay on HepG2 was “inactive” throughout. In the assay on S. aureus RN4220, the growth inhibition call is “inactive”.

For the compound `COc1ccc([Si](C)(C)[C@H]2[C@H](CC(=O)N(CCO)Cc3ccccc3)O[C@@]3(C(=O)N(Cc4cccc(N5CCCCC5=O)c4)c4ccccc43)[C@@H]2C)cc1`, the cytotoxicity call with HSkMC and in the assay on HepG2 was “inactive” throughout. The growth inhibition call in the assay with S. aureus RN4220 is “inactive”.

As for `Cc1ccc(S[C@]2(C(=O)NC3CC3)CC(=O)N(Cc3cc(C(F)(F)F)cc(C(F)(F)F)c3)[C@@H]2c2ccc(CO)cc2)cc1`, the cytotoxicity call in the assay with HSkMC and in the assay with HepG2 was “inactive” throughout. The growth inhibition call in the assay on S. aureus RN4220 is “inactive”.

Regarding `CC(C)[Si]1(C(C)C)OCc2cc(-c3ccc(-c4ccc(Cl)c(Cl)c4)o3)nc(CCc3ccccc3)c21`, the cytotoxicity call with HSkMC and in the assay with HepG2 was “inactive” in each case. Moreover, in the assay with S. aureus RN4220, the growth inhibition call is “inactive”.

For `Cc1ccc(S(=O)(=O)Nc2ccc3c(c2)C(=O)N([C@H](C)CO)C[C@H](C)[C@H](CN(C)Cc2ccc(C(F)(F)F)cc2)OCCCC[C@H](C)O3)cc1`, in the assay with HSkMC, the cytotoxicity call was “active”. Also, in the assay with HepG2, the cytotoxicity call is “inactive”. Also, in the assay on S. aureus RN4220, the growth inhibition call is “inactive”.

`C[C@@H]1CN([C@H](C)CO)C(=O)c2cc(NS(=O)(=O)c3ccccc3)ccc2O[C@@H](C)CCCCO[C@@H]1CN(C)C(=O)CCC(F)(F)F`: the cytotoxicity call with HSkMC and in the assay on HepG2 was “inactive” throughout. In addition, the growth inhibition call in the assay with S. aureus RN4220 is “inactive”.

Take `C[C@H]1CN([C@@H](C)CO)S(=O)(=O)c2ccc(-c3ccc(C(=O)N(C)C)cc3)cc2O[C@@H]1CN(C)C(=O)C1CCOCC1`: the cytotoxicity call in the assay on HSkMC and with HepG2 was “inactive” in each case. Besides, the growth inhibition call with S. aureus RN4220 is “inactive”.

For `C[C@H]1CN([C@@H](C)CO)C(=O)c2cc(C#CC3CCCCC3)cnc2O[C@H]1CN(C)C(=O)c1ccncc1`, the cytotoxicity call in the assay on HSkMC (human skeletal muscle cells) and in the assay on HepG2 was “inactive” each time. The growth inhibition call with S. aureus RN4220 was “inactive”.
